# From the supplement of paper PMC8728848
# The other results are listed elsewhere or left out.
# B1: PX14343H-pdi-506-26-506 (Parabacteroides distasonis) (protein)
# chain: QPTGTMTTDSKLTSKESALALTNSAYLKNTVFNKMTPGWGCNTILLLEYMTGKATSENSQSNYKDFQDLLVSDRSLYIEDWWQDCYAGIANCNLALQKLGEFENLDASLVNGYMAEVKFMRALYYFYLVRIFGDVPKITTVQSELGELQVSRAPVKEIYDEIIIPDLLEAEQSDLAFSDHTGRVSMGAVKALLADVYLTYAGYPLQGGKSYYAESAKRSLEVIKSNEYTLFTDYESLRLPSQNNKGEFIYQVQFSLNKRHNESVRIFLPSRSGISAYDLEYGSLIPTKEFVESFEKGDKRTEEKQYFFTNYKGHPSKFSPGAAELEFMDLNGYYIYKFFDQVAVDNTAKSDLNWSVYRYTDVLLMYAEAQVNADGTPNQQSIDIVNQIRGRAGLAPFKQTNASAFLEEVWDQRYFDLCYENKMWFDMLRTRKIRDDKSGEYVDFIGYKTNWGKVYTETQLLFPIPLSERQANPNLTQNQGY
# Key:
# Assay in all cases: glycan array binding signal (z-score within array); higher = stronger binding
# Details in all cases: glycan notation: IUPAC condensed, linker removed
# [1] = biological target: Neu5Ac(a2-3)Gal(b1-4)GlcNAc(b1-6)GalNAc
# How it was run: (§1)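 From the Consortium for Functional Glycomics database, 3228 arrays were curated, keeping only those whose protein sequence was available. Binding is given as a within-array Z-score averaged across arrays sharing a protein sequence and across linkers. Negative Z-scores can be read as non-binding.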
# [2] = biological target: Neu5Ac(a2-3)Gal(b1-4)GlcNAc(b1-6)[Gal(b1-3)]GalNAc
# How it was run: as §1
# [3] = biological target: Neu5Ac(a2-3)Gal(b1-4)GlcNAc(b1-6)[Neu5Ac(a2-3)Gal(b1-3)]GalNAc
# How it was run: as §1
# [4] = biological target: Neu5Ac(a2-3)Gal(b1-4)GlcNAc6S
# How it was run: as §1
# [5] = biological target: Neu5Ac(a2-3)Gal(b1-4)[Fuc(a1-3)]GlcNAc
# How it was run: as §1
# [6] = biological target: Neu5Ac(a2-3)Gal(b1-4)[Fuc(a1-3)]GlcNAc(b1-2)Man
# How it was run: as §1
# [7] = biological target: Neu5Ac(a2-3)Gal(b1-4)[Fuc(a1-3)]GlcNAc(b1-3)Gal
# How it was run: as §1
# [8] = biological target: Neu5Ac(a2-3)Gal(b1-4)[Fuc(a1-3)]GlcNAc(b1-3)Gal(b1-4)GlcNAc
# How it was run: as §1
# [9] = biological target: Neu5Ac(a2-3)Gal(b1-4)[Fuc(a1-3)]GlcNAc(b1-3)Gal(b1-4)[Fuc(a1-3)]GlcNAc(b1-3)Gal(b1-4)[Fuc(a1-3)]GlcNAc
# How it was run: as §1
# [10] = biological target: Neu5Ac(a2-3)Gal(b1-4)[Fuc(a1-3)]GlcNAc(b1-3)GalNAc
# How it was run: as §1
# [11] = biological target: Neu5Ac(a2-3)Gal(b1-4)[Fuc(a1-3)]GlcNAc(b1-6)[Gal(b1-3)]GalNAc
# How it was run: as §1
# [12] = biological target: Neu5Ac(a2-3)Gal(b1-4)[Fuc(a1-3)]GlcNAc(b1-6)[Neu5Ac(a2-3)Gal(b1-3)]GalNAc
# How it was run: as §1
# [13] = biological target: Neu5Ac(a2-3)Gal(b1-4)[Fuc(a1-3)]GlcNAc6S
# How it was run: as §1
# [14] = biological target: Neu5Ac(a2-3)Gal6S(b1-4)GlcNAc
# How it was run: as §1
# [15] = biological target: Neu5Ac(a2-3)Gal6S(b1-4)[Fuc(a1-3)]GlcNAc
# How it was run: as §1
# [16] = biological target: Neu5Ac(a2-3)GalNAc
# How it was run: as §1
# [17] = biological target: Neu5Ac(a2-3)GalNAc(b1-4)GlcNAc
# How it was run: as §1
# [18] = biological target: Neu5Ac(a2-3)[GalNAc(b1-4)]Gal(b1-4)Glc
# How it was run: as §1
# [19] = biological target: Neu5Ac(a2-3)[GalNAc(b1-4)]Gal(b1-4)GlcNAc
# How it was run: as §1
# [20] = biological target: Neu5Ac(a2-3)[GalNAc(b1-4)]Gal(b1-4)GlcNAc(b1-3)GalNAc
# How it was run: as §1
# [21] = biological target: Neu5Ac(a2-3)[Neu5Ac(a2-6)]GalNAc
# How it was run: as §1
# [22] = biological target: Neu5Ac(a2-6)Gal
# How it was run: as §1
# [23] = biological target: Neu5Ac(a2-6)Gal(b1-3)GlcNAc(b1-3)[Gal(b1-4)GlcNAc(b1-6)]Gal(b1-4)Glc
# How it was run: as §1
# [24] = biological target: Neu5Ac(a2-6)Gal(b1-4)Glc
# How it was run: as §1
# [25] = biological target: Neu5Ac(a2-6)Gal(b1-4)GlcNAc
# How it was run: as §1
# [26] = biological target: Neu5Ac(a2-6)Gal(b1-4)GlcNAc(b1-2)Man
# How it was run: as §1
# [27] = biological target: Neu5Ac(a2-6)Gal(b1-4)GlcNAc(b1-2)Man(a1-3)Man(b1-4)GlcNAc(b1-4)GlcNAc
# How it was run: as §1
# [28] = biological target: Neu5Ac(a2-6)Gal(b1-4)GlcNAc(b1-2)Man(a1-3)[Gal(b1-4)GlcNAc(b1-2)Man(a1-6)]Man(b1-4)GlcNAc(b1-4)GlcNAc
# How it was run: as §1
# [29] = biological target: Neu5Ac(a2-6)Gal(b1-4)GlcNAc(b1-2)Man(a1-3)[GlcNAc(b1-2)Man(a1-6)]Man(b1-4)GlcNAc(b1-4)GlcNAc
# How it was run: as §1
# [30] = biological target: Neu5Ac(a2-6)Gal(b1-4)GlcNAc(b1-2)Man(a1-3)[GlcNAc(b1-4)][Neu5Ac(a2-6)Gal(b1-4)GlcNAc(b1-2)Man(a1-6)]Man(b1-4)GlcNAc(b1-4)GlcNAc
# How it was run: as §1
# [31] = biological target: Neu5Ac(a2-6)Gal(b1-4)GlcNAc(b1-2)Man(a1-3)[Man(a1-6)]Man(b1-4)GlcNAc(b1-4)GlcNAc
# How it was run: as §1
# [32] = biological target: Neu5Ac(a2-6)Gal(b1-4)GlcNAc(b1-2)Man(a1-3)[Neu5Ac(a2-3)Gal(b1-4)GlcNAc(b1-2)Man(a1-6)]Man(b1-4)GlcNAc(b1-4)GlcNAc
# How it was run: as §1
# [33] = biological target: Neu5Ac(a2-6)Gal(b1-4)GlcNAc(b1-2)Man(a1-3)[Neu5Ac(a2-6)Gal(b1-4)GlcNAc(b1-2)Man(a1-6)]Man(b1-4)GlcNAc(b1-4)GlcNAc
# How it was run: as §1
# [34] = biological target: Neu5Ac(a2-6)Gal(b1-4)GlcNAc(b1-2)Man(a1-3)[Neu5Ac(a2-6)Gal(b1-4)GlcNAc(b1-2)Man(a1-6)]Man(b1-4)GlcNAc(b1-4)[Fuc(a1-6)]GlcNAc
# How it was run: as §1
# [35] = biological target: Neu5Ac(a2-6)Gal(b1-4)GlcNAc(b1-2)Man(a1-6)Man(b1-4)GlcNAc(b1-4)GlcNAc
# How it was run: as §1
# [36] = biological target: Neu5Ac(a2-6)Gal(b1-4)GlcNAc(b1-2)Man(a1-6)[Gal(b1-4)GlcNAc(b1-2)Man(a1-3)]Man(b1-4)GlcNAc(b1-4)GlcNAc
# How it was run: as §1
# [37] = biological target: Neu5Ac(a2-6)Gal(b1-4)GlcNAc(b1-2)Man(a1-6)[GlcNAc(b1-2)Man(a1-3)]Man(b1-4)GlcNAc(b1-4)GlcNAc
# How it was run: as §1
# [38] = biological target: Neu5Ac(a2-6)Gal(b1-4)GlcNAc(b1-2)Man(a1-6)[Man(a1-3)]Man(b1-4)GlcNAc(b1-4)GlcNAc
# How it was run: as §1
# [39] = biological target: Neu5Ac(a2-6)Gal(b1-4)GlcNAc(b1-2)[Neu5Ac(a2-6)Gal(b1-4)GlcNAc(b1-4)]Man(a1-3)[GlcNAc(b1-4)][Neu5Ac(a2-6)Gal(b1-4)GlcNAc(b1-2)[Neu5Ac(a2-6)Gal(b1-4)GlcNAc(b1-6)]Man(a1-6)]Man(b1-4)GlcNAc(b1-4)GlcNAc
# How it was run: as §1
# [40] = biological target: Neu5Ac(a2-6)Gal(b1-4)GlcNAc(b1-2)[Neu5Ac(a2-6)Gal(b1-4)GlcNAc(b1-4)]Man(a1-3)[GlcNAc(b1-4)][Neu5Ac(a2-6)Gal(b1-4)GlcNAc(b1-4)Man(a1-6)]Man(b1-4)GlcNAc(b1-4)GlcNAc
# How it was run: as §1
# [41] = biological target: Neu5Ac(a2-6)Gal(b1-4)GlcNAc(b1-2)[Neu5Ac(a2-6)Gal(b1-4)GlcNAc(b1-6)]Man(a1-6)[Neu5Ac(a2-6)Gal(b1-4)GlcNAc(b1-2)Man(a1-3)][GlcNAc(b1-4)]Man(b1-4)GlcNAc(b1-4)GlcNAc
# How it was run: as §1
# [42] = biological target: Neu5Ac(a2-6)Gal(b1-4)GlcNAc(b1-3)Gal(b1-3)GlcNAc
# How it was run: as §1
# [43] = biological target: Neu5Ac(a2-6)Gal(b1-4)GlcNAc(b1-3)Gal(b1-4)GlcNAc
# How it was run: as §1
# [44] = biological target: Neu5Ac(a2-6)Gal(b1-4)GlcNAc(b1-3)Gal(b1-4)GlcNAc(b1-2)Man(a1-3)[Neu5Ac(a2-6)Gal(b1-4)GlcNAc(b1-3)Gal(b1-4)GlcNAc(b1-2)Man(a1-6)]GalNAc
# How it was run: as §1
# [45] = biological target: Neu5Ac(a2-6)Gal(b1-4)GlcNAc(b1-3)Gal(b1-4)GlcNAc(b1-3)Gal(b1-4)GlcNAc
# How it was run: as §1
# [46] = biological target: Neu5Ac(a2-6)Gal(b1-4)GlcNAc(b1-3)Gal(b1-4)GlcNAc(b1-3)Gal(b1-4)GlcNAc(b1-2)Man(a1-3)[Neu5Ac(a2-6)Gal(b1-4)GlcNAc(b1-3)Gal(b1-4)GlcNAc(b1-3)Gal(b1-4)GlcNAc(b1-2)Man(a1-6)]GalNAc
# How it was run: as §1
binder,measurement,setting,value
B1,glycan array binding signal (z-score),[1],-0.444
same,glycan array binding signal (z-score),[2],-0.127
same,glycan array binding signal (z-score),[3],-0.369
same,glycan array binding signal (z-score),[4],-0.533
same,glycan array binding signal (z-score),[5],-0.352
same,glycan array binding signal (z-score),[6],-0.451
same,glycan array binding signal (z-score),[7],-0.265
same,glycan array binding signal (z-score),[8],-0.241
same,glycan array binding signal (z-score),[9],-0.321
same,glycan array binding signal (z-score),[10],-0.027
same,glycan array binding signal (z-score),[11],1.67
same,glycan array binding signal (z-score),[12],0.205
same,glycan array binding signal (z-score),[13],-0.419
same,glycan array binding signal (z-score),[14],-0.371
same,glycan array binding signal (z-score),[15],-0.416
same,glycan array binding signal (z-score),[16],-0.48
same,glycan array binding signal (z-score),[17],-0.527
same,glycan array binding signal (z-score),[18],2.88
same,glycan array binding signal (z-score),[19],-0.037
same,glycan array binding signal (z-score),[20],0.602
same,glycan array binding signal (z-score),[21],-0.483
same,glycan array binding signal (z-score),[22],-0.29
same,glycan array binding signal (z-score),[23],-0.538
same,glycan array binding signal (z-score),[24],-0.341
same,glycan array binding signal (z-score),[25],-0.517
same,glycan array binding signal (z-score),[26],-0.422
same,glycan array binding signal (z-score),[27],-0.061
same,glycan array binding signal (z-score),[28],2.9
same,glycan array binding signal (z-score),[29],0.321
same,glycan array binding signal (z-score),[30],0.453
same,glycan array binding signal (z-score),[31],-0.24
same,glycan array binding signal (z-score),[32],-0.276
same,glycan array binding signal (z-score),[33],-0.375
same,glycan array binding signal (z-score),[34],0.327
same,glycan array binding signal (z-score),[35],0.534
same,glycan array binding signal (z-score),[36],-0.542
same,glycan array binding signal (z-score),[37],-0.243
same,glycan array binding signal (z-score),[38],0.039
same,glycan array binding signal (z-score),[39],-0.082
same,glycan array binding signal (z-score),[40],1.45
same,glycan array binding signal (z-score),[41],-0.2
same,glycan array binding signal (z-score),[42],-0.464
same,glycan array binding signal (z-score),[43],-0.276
same,glycan array binding signal (z-score),[44],-0.291
same,glycan array binding signal (z-score),[45],-0.374
same,glycan array binding signal (z-score),[46],0.457
